Experimental data reported in the supplement of paper PMC3334620.
Whole data set: some 33,000 sequences, median “E-score (-0.5 to 0.5)” near -0.043, cut for the highest 2% near 0.37. The list shows a part of the results.

What follows are sequences tested against T1, Upc2 (UniProt Q12151) (assay: PBM E-score (8-mer binding enrichment) (E-score (-0.5 to 0.5)); higher = stronger / more preferred TF binding; most listed sequences are background and not binding sites). Details: protein concentration: 200 nM; construct: GST-full length.
T1 sequence: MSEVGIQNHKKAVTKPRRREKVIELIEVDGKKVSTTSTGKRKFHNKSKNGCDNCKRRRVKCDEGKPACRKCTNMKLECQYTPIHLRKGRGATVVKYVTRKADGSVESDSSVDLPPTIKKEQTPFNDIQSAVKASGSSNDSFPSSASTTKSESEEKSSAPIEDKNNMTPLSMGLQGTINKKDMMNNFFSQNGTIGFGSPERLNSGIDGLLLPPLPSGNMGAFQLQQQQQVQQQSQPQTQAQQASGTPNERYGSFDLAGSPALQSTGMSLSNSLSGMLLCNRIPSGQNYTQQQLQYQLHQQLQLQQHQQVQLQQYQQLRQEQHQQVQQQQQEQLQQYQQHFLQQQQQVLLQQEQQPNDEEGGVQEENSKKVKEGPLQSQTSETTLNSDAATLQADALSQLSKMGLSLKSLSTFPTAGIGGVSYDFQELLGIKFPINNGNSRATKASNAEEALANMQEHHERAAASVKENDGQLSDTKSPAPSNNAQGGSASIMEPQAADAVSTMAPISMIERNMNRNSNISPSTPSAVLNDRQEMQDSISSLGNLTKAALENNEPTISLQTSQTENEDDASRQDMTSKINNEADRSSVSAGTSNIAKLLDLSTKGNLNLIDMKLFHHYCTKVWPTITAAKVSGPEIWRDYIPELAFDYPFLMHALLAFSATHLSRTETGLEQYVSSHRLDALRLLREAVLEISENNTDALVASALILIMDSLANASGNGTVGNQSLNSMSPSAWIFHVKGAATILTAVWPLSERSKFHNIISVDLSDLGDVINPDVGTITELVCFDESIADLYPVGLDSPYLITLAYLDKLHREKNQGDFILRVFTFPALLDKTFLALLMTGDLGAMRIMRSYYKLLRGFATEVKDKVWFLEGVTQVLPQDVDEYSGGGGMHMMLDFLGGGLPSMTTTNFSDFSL
Procedure, shortened: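 Yeast transcription factors carrying a GST tag, as full-length proteins or DNA-binding domains, were produced by PURExpress in vitro transcription/translation. About 100-200 nM protein was applied to universal all-10-mer Agilent arrays, double-stranded by primer extension on fresh or once-stripped slides. Bound protein was detected with fluorescent anti-GST, and scans were normalised with masliner. The Universal PBM Analysis Suite gave each ungapped eight-base word, pooled with its reverse complement, an E-score, a modified Wilcoxon-Mann-Whitney statistic.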

Sequence	PBM E-score
CCTAGTAA	-0.332
CTTAATCC	-0.217
CATCGGTA	0.133
GCAGTCCC	-0.314
GGGGTGAA	-0.357
GTTCTTAA	0.0333
CTTTCTGC	-0.111
GTCATAGA	-0.134
CCGTGAAG	-0.0728
ATTGGTGG	-0.132
ACGTACAT	0.287
CACGTTTA	0.363
CTCACCTA	-0.0848
GGTGTGCA	-0.207
TACTCCTA	-0.122
GTGAACCA	-0.0384
CTAGTTCC	0.0645
CTCCAAAC	0.123
CCGGTCCA	-0.266
AGCTTAGG	-0.263
ACCTAGAC	-0.0829
CAGGTCCG	-0.127

Sequence	PBM E-score
AGTAGGTC	0.145
AGGTCCCA	-0.283
CCAGGTGC	-0.163
AGTAGGAA	-0.18
CGGGGGAA	-0.279
AAATAAAG	-0.073
TCACTAAA	0.107
AGCACAGG	-0.233
CGACTAAA	0.0471
ATCACGAA	-0.00187
AGAACTGC	0.144
GACAGTTA	0.0255
AGATCACG	-0.0226
TCCGCGAA	0.0465
AATTGTAG	0.0473
CCGCGAAG	-0.172
AAAAGCGG	-0.153
CGACGCCA	-0.027
AGTGTCCA	-0.011
ACCTCGAT	0.108
AAGACAGG	-0.0117
GAGAGTCC	-0.0796

Sequence	PBM E-score
CTTTATGA	-0.28
ATCGTTAG	0.239
AATCGAGA	0.0715
AACCTGCT	-0.0408
CCGCGCTC	-0.00583
CATTTACG	0.345
GGTCTTTA	-0.0788
ATGCGAAC	0.266
TGAAGCAA	-0.295
CCTGACTA	-0.0277
ATAATCTC	-0.00921
ATGCCTAC	-0.234
GTTTGTCA	0.0304
AGAATTAG	-0.0263
ACAAGACA	0.0347
ACCGATAC	0.35
AGGGGCAG	-0.223
AAAAGCAA	0.046
ATCCCGAC	-0.0759
ATTGGTAG	-0.19
GCCGTAGA	0.189
GGTAAGTA	-0.00615

Sequence	PBM E-score
ATGCGTTA	0.201
CGTAGTAG	0.108
ATACGGAG	0.411
ATTTCGAG	0.0471
AATAGCAA	-0.0979
GAATCGCA	-0.0934
CGTAGCGC	0.256
GCTTCTTA	0.0291
CAGTTTAC	0.158
AGTTTAGC	0.00286
AATGCACG	0.00607
GACCTCGC	0.198
GAAGACAC	0.0892
CCGATGGA	0.109
CGTTTAAA	0.47
AAGTCACG	-0.12
ATAATCCC	-0.0168
CAAAATCC	-0.0221
ATAACCAA	-0.0125
AGCCACAA	-0.0358
